PubChem BioAssay AID1768 (National Center for Advancing Translational Sciences (NCATS), 2009)
“And” between values parts separate entries of the source, which are not always exact repeats. Equal values may be shown once. The campaign covered roughly 270,000 compounds. About 620 (0.23%) were called active. The inconclusive results got no clear call from the source; some entries with a clear call stand among them for comparison. Calls follow the shape of the dose curve; as a rule, active = well fitted inhibition curve with a large enough effect in the polarisation, with a control signal flat (not every such curve was filed as active); inconclusive = small, poorly fitted or top-dose-only effect, or effect the other way, or a change in a side signal; inactive = no such curve, though single readings can be large or run the other way; the % refers to the polarisation. Potencies beside an inconclusive call are fits to weak or partial responses and may not hold up. A note “side channel” means that the fit belongs to a control or component signal, not to the main read-out.

These molecules were tested against Menin (Homo sapiens) (UniProt O00255) (assay: qHTS Assay for Inhibitors Targeting the Menin-MLL Interaction in MLL Related Leukemias: Competition With Texas Red Labeled MLL-derived Mutant Peptide). Details: fluorescence polarization; FP activity change, negative = inhibition: at 61.6 µM (top of the series).
Chain of UniProt O00255 (O00255 whole entry, looked up): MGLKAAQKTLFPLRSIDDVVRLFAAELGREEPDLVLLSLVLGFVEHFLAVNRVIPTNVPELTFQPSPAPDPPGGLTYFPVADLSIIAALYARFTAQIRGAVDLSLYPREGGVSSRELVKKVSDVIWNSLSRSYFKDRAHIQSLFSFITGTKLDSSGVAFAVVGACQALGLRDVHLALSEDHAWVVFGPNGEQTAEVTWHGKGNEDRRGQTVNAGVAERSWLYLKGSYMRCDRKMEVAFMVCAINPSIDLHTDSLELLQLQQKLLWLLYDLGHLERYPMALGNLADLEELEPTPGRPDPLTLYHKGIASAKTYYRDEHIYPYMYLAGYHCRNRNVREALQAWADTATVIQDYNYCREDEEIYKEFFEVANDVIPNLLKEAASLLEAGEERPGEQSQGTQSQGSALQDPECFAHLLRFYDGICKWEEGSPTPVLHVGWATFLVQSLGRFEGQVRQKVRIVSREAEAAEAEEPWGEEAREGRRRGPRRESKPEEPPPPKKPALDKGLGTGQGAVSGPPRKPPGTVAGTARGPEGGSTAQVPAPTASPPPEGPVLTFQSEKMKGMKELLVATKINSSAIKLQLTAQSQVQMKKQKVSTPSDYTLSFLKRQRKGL

For FP activity change, negative = inhibition in this document: % of control where 0% means no effect.
Potency is read from the fitted curve at half-maximal effect; tags tell the direction and shape of the fitted curve or compound fluorescence and quenching.

SMILES	Potency	FP activity change, negative = inhibition
O=C(CCCN1C(=O)/C(=C/c2cccs2)SC1=S)Nc1ccccn1	inconclusive: 14.1 µM [quencher, side channel, partial curve]	
CCCCC(=O)Nc1cccc(NC(=S)NC(=O)COc2ccccc2Cl)c1	inconclusive: 15.8 µM [quencher, side channel, partial curve]	
COc1cccc(/C=N/n2c(COc3ccccc3)n[nH]c2=S)c1O	inconclusive: 22.4 µM [quencher, side channel, single point]	
Cc1cc(NC(=O)CSc2nnc(-c3ccccc3)n2Cc2ccco2)no1	inconclusive: 5.01 µM [inhibitor, single point]	
C=CCOC(=O)COc1ccc2c(C)c(C)c(=O)oc2c1		inactive: -15.2%
CCCC[C@@H]1C[C@H]1[C@@H](NC(=O)c1ccco1)c1ccc(Cl)cc1	inconclusive: 14.1 µM [fluorescent, side channel, single point]	
Cn1cc(-c2nc3cncnc3n(Cc3ccccc3Cl)c2=O)c2ccccc21		inactive: 8.29%
COc1cccc(C(C)NC(=O)Cc2cccs2)c1 (stereo not given)	inconclusive: 22.4 µM [inhibitor, partial curve, poor fit]	
Cc1ccc(/C=N/n2cc(-c3ccccc3)[nH]c2=S)s1	inconclusive: 14.1 µM [quencher, side channel, partial curve]	
CN(c1ccc(C(=O)Nc2cccc(O)c2)cc1)S(=O)(=O)c1ccccc1	inconclusive: 22.4 µM [quencher, single point]	
O=C(c1c(Cl)cccc1Cl)N1CCN(c2ccccn2)CC1		inactive: 4.89%
O=C(Nc1ccc(N2CCOCC2)c(Cl)c1)c1ccc(Cl)cc1	inconclusive: 10 µM [quencher, side channel, partial curve]	
C[C@@H](C(=O)Nc1ccc2ccccc2c1)[C@@H]1C[C@@]1(C)[C@@H](NC(=O)Oc1ccc(F)cc1)c1ccccc1	inconclusive: 10 µM [inhibitor, partial curve]	
COc1ccc(OC)c(CCNC(=O)CS(=O)(=O)Cc2nc(-c3ccccc3C)oc2C)c1	inconclusive: 1.78 µM [fluorescent, side channel, full curve, poor fit]	
CN1CCN(Cc2cc(COCc3ccccc3)c3cccnc3c2O)CC1	inconclusive: 1.26 µM [fluorescent, side channel, full curve, poor fit]	
COc1cccc(CC2(CO)CCCN(Cc3c(C)cc(C)cc3-n3cccn3)C2)c1 (stereo not given)	inconclusive: 5.62 µM [fluorescent, side channel, partial curve]	
CO[C@H]1C[C@@H]2CC[C@@H](C)[C@@](O)(O2)C(=O)C(=O)N2CCCC[C@H]2C(=O)O[C@H]([C@H](C)C[C@@H]2CC[C@@H](OCCO)[C@H](OC)C2)CC(=O)[C@H](C)/C=C(\C)[C@@H](O)[C@@H](OC)C(=O)[C@H](C)C[C@H](C)/C=C/C=C/C=C/1C		inactive: -9.06%
Cc1cc(NC(=O)CCC(=O)N(CCC(C)C)C(C(=O)NC2CCCC2)c2ccccc2C)no1 (stereo not given)	inconclusive: 1.58 µM [fluorescent, side channel, partial curve]	
COc1cc(/C=N\NC(=O)c2cccnc2)ccc1OC(=O)c1ccccc1Cl	inconclusive: 39.8 µM [inhibitor, single point]	
CCN(CC)c1ccc(/C=N/NC(=O)c2cc3ccccc3[nH]2)cc1	inconclusive: 17.8 µM [quencher, side channel, partial curve]	
CCOC(=O)c1ccc(NC(=O)c2cc(C)nc3ccccc23)cc1	inconclusive: 31.6 µM [fluorescent, side channel, single point]	
Cc1cc(-c2cccnc2)c(C#N)c(SCc2cccc(F)c2)n1	inconclusive: 39.8 µM [fluorescent, side channel, partial curve]	
Cn1c(SCC(=O)Nc2ccccc2)nnc1-c1ccc(NC(=O)CCc2ccccc2)cc1	inconclusive: 39.8 µM [inhibitor, single point]	
O=C(N/N=C/C=C/c1ccco1)c1cccs1	inconclusive: 39.8 µM [quencher, side channel, single point]	
N=C1/C(=C\c2ccc(Br)o2)C(=O)N=C2SC(CC(=O)N3CCOCC3)=NN12	inconclusive: 15.8 µM [fluorescent, side channel, partial curve]	
Cc1onc(-c2ccccc2)c1C(=O)NC(=S)NNC(=O)c1ccccc1O	inconclusive: 35.5 µM [quencher, side channel, single point]	
Cc1nc(NC(=O)c2ccccc2)sc1-c1csc(Nc2ccc(F)cc2)n1	inconclusive: 7.94 µM [quencher, side channel, full curve]	
O=C(O)Cn1c(O)c(C=Nc2ccccc2)sc1=S	inconclusive: 14.1 µM [fluorescent, side channel, partial curve] and inconclusive: 31.6 µM [fluorescent, side channel, single point]	

SMILES	Potency	FP activity change, negative = inhibition
CC(C)NC(=O)c1onc(CSc2cccc3ccccc23)c1C(=O)O	inconclusive: 15.8 µM [quencher, side channel, partial curve]	
Cc1cccc(NC(=O)NCc2ccc3[nH]c(C)cc3c2)c1	inconclusive: 28.2 µM [quencher, partial curve]	
CC(C)c1nnc(NC(=O)C2CCN(C(=O)Nc3ccccc3)CC2)s1		inactive: -9.16%
COc1ccccc1N1CCN(CCN(C(=O)C2CCCCC2)c2ccccn2)CC1	inconclusive: 15.8 µM [fluorescent, side channel, partial curve]	
Cc1ccc(OCCCCn2ccnc2)c(Cl)c1	inconclusive: 15.8 µM [inhibitor, partial curve]	
CCOc1ccccc1CNC(=O)c1cn(C)c(=O)c2c1c1ccccc1n2C	inconclusive: 10 µM [fluorescent, side channel, partial curve]	
COc1ccc(-c2sc(Nc3ccc(F)c(F)c3F)nc2CCC(=O)NN)cc1	inconclusive: 22.4 µM [quencher, side channel, partial curve]	
CC(C)(C)NC(=O)C(c1ccncc1)N(C(=O)Cn1nnc(-c2cccs2)n1)C1CCCCC1 (stereo not given)	inconclusive: 14.1 µM [inhibitor, partial curve]	
CCN(CC)CCn1c(=S)[nH]c2ccc(Cl)cc2c1=O	inconclusive: 31.6 µM [inhibitor, single point]	
COc1cc2c(cc1OC)-c1cc3cc(OC)c(OC)cc3c(=O)n1CC2		inactive: 10.7%
Oc1ccc(C2C(c3ccccc3)=NN=C(c3ccc(Cl)cc3)N2O)c(O)c1 (stereo not given)	inconclusive: 28.2 µM [quencher, side channel, partial curve]	
COc1cccc(NC(=O)C2CCN(S(=O)(=O)c3ccc4[nH]c(=O)ccc4c3)CC2)c1	inconclusive: 35.5 µM [fluorescent, side channel, single point]	
CCN=c1scc(-c2ccco2)n1/N=C/c1ccc(OC)c(O)c1	inconclusive: 22.4 µM [quencher, side channel, single point]	
COc1ccccc1/C=C1\SC(=S)N(CCC(=O)Nc2cccc(O)c2)C1=O	inconclusive: 20 µM [quencher, side channel, partial curve]	
NC(=S)Nc1cccc2cc3ccccc3cc12	inconclusive: 31.6 µM [quencher, side channel, single point]	
O=C(c1ccccc1)N1CCCCC(Sc2nnnn2-c2ccccc2)C1=O (stereo not given)		inactive: -4.09%
Cc1cc(NCc2ccccc2)nc(-c2ccccc2O)n1	inconclusive: 10 µM [quencher, side channel, partial curve]	
CC(C)CCN1C(=O)c2ccc(C(=O)Nc3cccc(S(N)(=O)=O)c3)cc2C1=O	inconclusive: 31.6 µM [quencher, side channel, single point]	
Cc1cc2cc(CNS(=O)(=O)c3ccc4ccccc4c3)ccc2n1C	inconclusive: 31.6 µM [fluorescent, side channel, single point]	
Cc1nnc(SCC(=O)Nc2ncc(S(=O)(=O)c3ccc([N+](=O)[O-])cc3)s2)s1	inconclusive: 22.4 µM [quencher, side channel, single point]	
Cc1nc(C/C(=N\Nc2ccccc2)c2ccc(O)cc2O)cs1	inconclusive: 31.6 µM [quencher, partial curve]	
O=C(Nc1ccc(Br)cc1)c1ccc2c(c1)OCO2	inconclusive: 35.5 µM [fluorescent, side channel, single point]	
CCCCN(CC)CCNC(=O)c1cc2c(=O)n(CC)c3ccccc3c2s1	inconclusive: 17.8 µM [inhibitor, partial curve, poor fit]	
C#CCn1c(S(=O)(=O)Cc2ccc(OC)cc2)nc(-c2ccccc2)c1-c1ccccc1	inconclusive: 3.98 µM [inhibitor, single point]	
CCCCC(=O)N/N=C/c1ccc(-c2ccc([N+](=O)[O-])cc2)o1	inconclusive: 28.2 µM [quencher, side channel, partial curve]	
COc1ccc(NC(=O)c2ccco2)cc1NC(=O)c1ccccc1F	inconclusive: 39.8 µM [fluorescent, side channel, single point]	
Cc1ccc(OCC(=O)Nc2ccc(S(=O)(=O)N3CCCCC3)cc2)c([N+](=O)[O-])n1	inconclusive: 12.6 µM [quencher, side channel, partial curve]	
